# The list shows a part of the results.
# What was measured:
# Assay in all cases: glycan array binding signal (z-score within array); higher = stronger binding
# Conditions in all cases: glycan notation: IUPAC condensed, linker removed
# [1] = target: GalNAc(b1-3)Gal(a1-4)Gal(b1-4)GlcNAc
# Outline: (§1)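 From the Consortium for Functional Glycomics database, 3228 arrays were curated, keeping only those whose protein sequence was available. Binding is given as a within-array Z-score averaged across arrays sharing a protein sequence and across linkers. Negative Z-scores can be read as non-binding.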
# [2] = target: GalNAc(b1-3)Gal(a1-4)Gal(b1-4)GlcNAc(b1-3)Gal(b1-4)Glc
# Outline: as §1
# [3] = target: GalNAc(b1-3)Gal(a1-6)Gal(b1-4)Glc
# Outline: as §1
# GalNAc(b1-3)GalNAc = target: GalNAc(b1-3)GalNAc
# Outline: as §1
# GalNAc(b1-4)GlcNAc = target: GalNAc(b1-4)GlcNAc
# Outline: as §1
# [4] = target: GalNAc(b1-4)GlcNAc(b1-2)Man(a1-3)[GalNAc(b1-4)GlcNAc(b1-2)Man(a1-6)]Man(b1-4)GlcNAc(b1-4)GlcNAc
# Outline: as §1
# Glc(a1-4)Glc = target: Glc(a1-4)Glc
# Outline: as §1
# Glc(a1-6)Glc(a1-6)Glc = target: Glc(a1-6)Glc(a1-6)Glc
# Outline: as §1
# Glc(b1-4)Glc = target: Glc(b1-4)Glc
# Outline: as §1
# Glc(b1-6)Glc = target: Glc(b1-6)Glc
# Outline: as §1
# GlcA(b1-3)Gal = target: GlcA(b1-3)Gal
# Outline: as §1
# GlcA(b1-3)GlcNAc = target: GlcA(b1-3)GlcNAc
# Outline: as §1
# GlcA(b1-6)Gal = target: GlcA(b1-6)Gal
# Outline: as §1
# [5] = target: GlcNAc(a1-3)Gal(b1-4)GlcNAc
# Outline: as §1
# [6] = target: GlcNAc(a1-4)Gal(b1-3)GlcNAc
# Outline: as §1
# [7] = target: GlcNAc(a1-4)Gal(b1-4)GalNAc
# Outline: as §1
# [8] = target: GlcNAc(a1-4)Gal(b1-4)GlcNAc
# Outline: as §1
# [9] = target: GlcNAc(a1-4)Gal(b1-4)GlcNAc(b1-3)Gal(b1-4)Glc
# Outline: as §1
# [10] = target: GlcNAc(a1-4)Gal(b1-4)GlcNAc(b1-3)Gal(b1-4)GlcNAc
# Outline: as §1
# [11] = target: GlcNAc(a1-4)Gal(b1-4)GlcNAc(b1-3)Gal(b1-4)GlcNAc(b1-3)Gal(b1-4)GlcNAc
# Outline: as §1
# [12] = target: GlcNAc(a1-4)Gal(b1-4)GlcNAc(b1-3)Gal(b1-4)[Fuc(a1-3)]GlcNAc(b1-3)Gal(b1-4)[Fuc(a1-3)]GlcNAc
# Outline: as §1
# [13] = target: GlcNAc(a1-6)Gal(b1-4)GlcNAc
# Outline: as §1
# [14] = target: GlcNAc(b1-2)Gal(b1-3)GalNAc
# Outline: as §1
# [15] = target: GlcNAc(b1-2)Man(a1-3)[GlcNAc(b1-2)Man(a1-6)]Man(b1-4)GlcNAc(b1-4)GlcNAc
# Outline: as §1
# [16] = target: GlcNAc(b1-2)Man(a1-3)[GlcNAc(b1-2)Man(a1-6)]Man(b1-4)GlcNAc(b1-4)[Fuc(a1-6)]GlcNAc
# Outline: as §1
# [17] = target: GlcNAc(b1-2)[GlcNAc(b1-4)]Man(a1-3)[GlcNAc(b1-2)Man(a1-6)]Man(b1-4)GlcNAc(b1-4)GlcNAc
# Outline: as §1
# GlcNAc(b1-3)Gal = target: GlcNAc(b1-3)Gal
# Outline: as §1
# [18] = target: GlcNAc(b1-3)Gal(b1-3)GalNAc
# Outline: as §1
# GlcNAc(b1-3)Gal(b1-4)Glc = target: GlcNAc(b1-3)Gal(b1-4)Glc
# Outline: as §1
# [19] = target: GlcNAc(b1-3)Gal(b1-4)GlcNAc
# Outline: as §1
# [20] = target: GlcNAc(b1-3)Gal(b1-4)GlcNAc(b1-3)Gal(b1-4)GlcNAc
# Outline: as §1
# GlcNAc(b1-3)GalNAc = target: GlcNAc(b1-3)GalNAc
# Outline: as §1
# GlcNAc(b1-3)Man = target: GlcNAc(b1-3)Man
# Outline: as §1
# [21] = target: GlcNAc(b1-3)[GlcNAc(b1-4)][GlcNAc(b1-6)]GlcNAc
# Outline: as §1
# [22] = target: GlcNAc(b1-3)[GlcNAc(b1-6)]Gal(b1-4)GlcNAc
# Outline: as §1
# [23] = target: GlcNAc(b1-3)[GlcNAc(b1-6)]GalNAc
# Outline: as §1
# [24] = target: GlcNAc(b1-4)Gal(b1-4)GlcNAc
# Outline: as §1
# GlcNAc(b1-4)GlcNAc = target: GlcNAc(b1-4)GlcNAc
# Outline: as §1
# [25] = target: GlcNAc(b1-4)GlcNAc(b1-4)GlcNAc
# Outline: as §1
# [26] = target: GlcNAc(b1-4)GlcNAc(b1-4)GlcNAc(b1-4)GlcNAc(b1-4)GlcNAc
# Outline: as §1
# [27] = target: GlcNAc(b1-4)GlcNAc(b1-4)GlcNAc(b1-4)GlcNAc(b1-4)GlcNAc(b1-4)GlcNAc
# Outline: as §1
# [28] = target: GlcNAc(b1-4)[GlcNAc(b1-6)]GalNAc
# Outline: as §1
# [29] = target: GlcNAc(b1-6)Gal(b1-4)GlcNAc
# Outline: as §1
# GlcNAc(b1-6)GalNAc = target: GlcNAc(b1-6)GalNAc
# Outline: as §1
# GlcNAc3Prop(b1-4)GlcNAc = target: GlcNAc3Prop(b1-4)GlcNAc
# Outline: as §1
binder,measurement,setting,value
"CTLY 1 (Homo sapiens), Q6ZS10 (protein) AITCPEGWLPFEGKCYYFSPSTKSWDEARMFCQENYSHLVIINSFAEHNFVAKAHGSPRVYWLGLNDRAQEGDWRWLDGSPVTLSFWEPEEPNNIHDEDCATMNKGGTWNDLSCYKTTYWICERKGLNDIFEAQKIEWHE",glycan array binding signal (z-score),[1],-0.243
same,glycan array binding signal (z-score),[2],-0.231
same,glycan array binding signal (z-score),[3],-0.235
same,glycan array binding signal (z-score),GalNAc(b1-3)GalNAc,-0.24
same,glycan array binding signal (z-score),GalNAc(b1-4)GlcNAc,-0.242
same,glycan array binding signal (z-score),[4],-0.235
same,glycan array binding signal (z-score),Glc(a1-4)Glc,-0.243
same,glycan array binding signal (z-score),Glc(a1-6)Glc(a1-6)Glc,-0.243
same,glycan array binding signal (z-score),Glc(b1-4)Glc,-0.243
same,glycan array binding signal (z-score),Glc(b1-6)Glc,-0.233
same,glycan array binding signal (z-score),GlcA(b1-3)Gal,-0.248
same,glycan array binding signal (z-score),GlcA(b1-3)GlcNAc,-0.229
same,glycan array binding signal (z-score),GlcA(b1-6)Gal,-0.241
same,glycan array binding signal (z-score),[5],-0.236
same,glycan array binding signal (z-score),[6],-0.227
same,glycan array binding signal (z-score),[7],-0.228
same,glycan array binding signal (z-score),[8],-0.232
same,glycan array binding signal (z-score),[9],-0.237
same,glycan array binding signal (z-score),[10],-0.241
same,glycan array binding signal (z-score),[11],-0.229
same,glycan array binding signal (z-score),[12],-0.095
same,glycan array binding signal (z-score),[13],-0.237
same,glycan array binding signal (z-score),[14],-0.012
same,glycan array binding signal (z-score),[15],-0.058
same,glycan array binding signal (z-score),[16],-0.209
same,glycan array binding signal (z-score),[17],1.24
same,glycan array binding signal (z-score),GlcNAc(b1-3)Gal,-0.238
same,glycan array binding signal (z-score),[18],-0.205
same,glycan array binding signal (z-score),GlcNAc(b1-3)Gal(b1-4)Glc,-0.251
same,glycan array binding signal (z-score),[19],-0.237
same,glycan array binding signal (z-score),[20],-0.237
same,glycan array binding signal (z-score),GlcNAc(b1-3)GalNAc,-0.242
same,glycan array binding signal (z-score),GlcNAc(b1-3)Man,-0.244
same,glycan array binding signal (z-score),[21],0.951
same,glycan array binding signal (z-score),[22],0.14
same,glycan array binding signal (z-score),[23],-0.066
same,glycan array binding signal (z-score),[24],-0.212
same,glycan array binding signal (z-score),GlcNAc(b1-4)GlcNAc,-0.239
same,glycan array binding signal (z-score),[25],-0.218
same,glycan array binding signal (z-score),[26],-0.241
same,glycan array binding signal (z-score),[27],-0.242
same,glycan array binding signal (z-score),[28],0.086
same,glycan array binding signal (z-score),[29],-0.229
same,glycan array binding signal (z-score),GlcNAc(b1-6)GalNAc,-0.218
same,glycan array binding signal (z-score),GlcNAc3Prop(b1-4)GlcNAc,-0.085

# Reference: the supplement of paper PMC8728848
